PubChem BioAssay AID445 (National Center for Advancing Translational Sciences (NCATS), 2006)
The whole screen tested about 110,000 compounds, of which about 40 (0.04%) were called active. The shares of active, inactive and inconclusive entries below differ from those in the screen. The call rests on the fitted dose curve; in most records, active means well fitted curve in the direction sought with a large enough effect in the signal ratio (not every such curve was filed as active); inconclusive means small, poorly fitted or top-dose-only effect, or a change in a side signal; inactive means flat fitted curve, though single readings scatter; the % refers to the signal ratio. A potency beside an inconclusive call is a rough fit, not a confirmed value.

Assay: IkB Signaling;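 on IkBa stabilization activation: 0% = basal untreated cells and 100% = reference inhibitor full response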
Settings: ABC-DLBCL IkBa-CBG/CBR dual luciferase ratio (green luciferase fused to IkBa over red control in OCI-Ly3 lymphoma cells), 4 h; IkBa stabilization activation: at 57.1 µM (top of the series), scaled: untreated 0%, proteasome inhibitor 100% unless noted
How it was run: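 Curves were fitted separately to fusion (green), unfused (red) and ratio luminescence, then classed by r2, magnitude and activity. Cells: OCI-Ly3, 4 h compound plus doxycycline at 37C; 10 uM MG-132 defined full response.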
Potency means the concentration at half of the fitted maximal effect.

SMILES	IkBa stabilization activation	Potency
O=C(Nc1ccc(Br)cc1F)N1CC=C(c2c[nH]c3ccccc23)CC1	inconclusive: 1.22% [signal inhibitor]	–
CC(CCc1ccccc1)NC(=O)CSc1n[nH]c(-c2ccc(F)cc2)n1 (stereo not drawn)	inconclusive: 0.928% [signal inhibitor]	–
COc1ccc(CNC(=O)CN2C(=O)CCn3nc(-c4ccccc4)cc32)c(OC)c1	inconclusive: 2.49% [signal inhibitor]	–
COc1ccc(N2C(=O)Cc3cc(OC)c(OC)cc3C2c2ccc(F)cc2)cc1 (stereo not drawn)	inconclusive: -0.328% [signal inhibitor]	–
CNc1nc(-c2ccccc2CN(C)C)nc2ccccc12	inactive: -5.69% [at 11.4 µM, scaled: untreated 0%, proteasome inhibitor 100%]	–
COc1ccc(-c2ccc(CCC(=O)O)n2-c2ccccc2O)cc1	inactive: 4.82%	–
Cc1oc2ncn(C)c(=O)c2c1C(=O)NCc1ccc(Cl)cc1	inactive: 0.963%	–
Fc1ccc(Nc2nc(-c3ccoc3)nc3ccccc23)cc1	inactive: 0.0144% [at 11.4 µM, scaled: untreated 0%, proteasome inhibitor 100%]	–
COc1ccc(-c2nn3c(=O)cc(CN4CCN(S(=O)(=O)c5ccc(C)cc5)CC4)nc3s2)cc1	inconclusive: -0.655% [signal inhibitor]	–
Cc1cc(OCC(O)CN2CCN(c3cccc(Cl)c3)CC2)ccc1Cl (stereo not drawn)	inconclusive: -8.67% [signal inhibitor]	–
COc1ccc(C(=O)Nc2ccc(S(=O)(=O)N(Cc3ccccc3)c3ccccc3)cc2)cc1	inconclusive: -1.98% [signal inhibitor]	–
CCOC(=O)c1cc(-c2ccc(F)cc2)n(CCC(=O)Nc2nc3ccc(OC)cc3s2)c1C	inconclusive: 0.467% [signal inhibitor]	–
COCCCn1c(-c2ccc(OC)cc2)nc2nc3ccccc3nc21	inactive: -1.99%	–
COc1ccc(S(=O)(=O)N(CC(=O)Nc2cc(Cl)ccc2C)Cc2ccccc2)cc1OC	inconclusive: 16.2% [signal inhibitor]	–
CCn1nc(C)c2c(-c3ccccc3)cc(=O)n(C(C)C(=O)NCCc3ccc(OC)c(OC)c3)c21 (stereo not drawn)	inconclusive: 1.34% [signal inhibitor]	–
O=C(OCC(=O)N1CCCCC1)c1cc2ccccc2cc1O	–	inconclusive: 15.8 µM [signal inhibitor, partial curve]
COc1ccc(NCc2cc3cc4c(cc3n(CC(=O)Nc3ccc(C)c(C)c3)c2=O)OCO4)cc1	inconclusive: 1.52% [signal inhibitor]	–
Cn1c(=O)oc2cc(S(=O)(=O)CCC(=O)NCCc3ccc(Cl)cc3)ccc21	inactive: -1.07%	–
CC(C)(C)OC(=O)N1CCC(c2c(C(=O)N3CCCCC3)cnn2-c2ccccc2Cl)CC1	inconclusive: -0.448% [signal inhibitor]	–
Cc1ccccc1-c1nc(CN2CCC(C(=O)N3CCN(c4ccccn4)CC3)CC2)c(C)o1	inconclusive: 5.87% [signal inhibitor]	–
COc1ccccc1OCc1nc(C#N)c(NCc2ccc(C)cc2)o1	inconclusive: 8.83% [signal inhibitor]	–
C=CC(C)Sc1nc2c(c(=O)n(C)c(=O)n2C)n1Cc1ccccc1Cl (stereo not drawn)	–	inconclusive: 15.8 µM [signal inhibitor, partial curve]
O=C(Nc1nccs1)c1ccc(CSc2nnnn2-c2ccccc2)cc1	inconclusive: 1.41% [signal inhibitor]	–

SMILES	IkBa stabilization activation	Potency
O=C(Cn1c(-c2ccccc2)noc1=O)Nc1ccc(N2CCCCCC2)cc1	inactive: 4.45%	–
COc1ccc(-c2nn(-c3ccccc3)cc2C2NC(=O)NC(C)=C2C(=O)OC(C)C)cc1Cl (stereo not drawn)	inconclusive: 4.61% [signal inhibitor]	–
O=C(Nc1ccc2c(c1)OC1(CCCC1)O2)C1CC1	inactive: -1.32%	–
O=C(Nc1ccc(CN2CCCCC2)cc1)c1ccc(Br)o1	inactive: -1.31%	–
COc1ccc(NC(=O)N(Cc2cc3cc(OC)ccc3[nH]c2=O)CC2CCCO2)cc1 (stereo not drawn)	inconclusive: 0.28% [signal inhibitor]	–
O=c1oc2c3c(ccc2c2ccccc12)OCN(Cc1ccccc1Cl)C3	inactive: -0.225%	–
COc1ccc(-c2nnc(SCC(=O)N(C)C3CCCCC3)o2)cc1OC	inconclusive: 1.23% [signal inhibitor]	–
COC(=O)c1sccc1S(=O)(=O)N(CC(=O)Nc1ccccc1F)c1ccccc1	inconclusive: 1.29% [signal inhibitor]	–
Cc1cccn2c(=O)c3cc(C(=O)N4CCc5ccccc54)n(C)c3nc12	inactive: 0.379%	–
Cc1cccc(C(=O)n2nc(-c3cccnc3)nc2NCc2ccccc2)c1	inconclusive: 3.07% [signal inhibitor]	–
Cc1ccc(C(=O)NCCc2ccc(S(N)(=O)=O)cc2)cc1-n1cnc2cccnc21	inconclusive: 1.16% [signal inhibitor]	–
COC(=O)c1c(NC(=O)Cc2coc3ccc(C(C)C)cc23)sc2c1CCC2	inconclusive: 9.95% [signal inhibitor]	–
Cc1ccc(N=C2NC(=O)CC(C(=O)Nc3cc(C(F)(F)F)ccc3Cl)S2)cc1 (stereo not drawn)	inconclusive: 1.46% [signal inhibitor]	–
O=S(=O)(c1ccc(Cl)cc1)c1nnn2c1nc(NCc1ccc3c(c1)OCO3)c1sccc12	inconclusive: -0.678% [signal inhibitor]	–
O=C(Nn1cnnc1)c1cc(-c2ccccn2)nc2ccccc12	inactive: 2.64%	–
COc1cc(Nc2cc(C)nc3ncnn23)cc(OC)c1	inconclusive: 9.31% [signal activator]	–
Cc1ccc(N(CC(=O)Nc2cc(C)ccc2C)S(=O)(=O)c2c(C)noc2C)cc1	inconclusive: -0.533% [signal inhibitor]	–
CCCCN(CC)CCNC(=O)C1CCCN(c2ncnc3onc(C)c23)C1 (stereo not drawn)	inconclusive: 0.185% [signal inhibitor]	–
CC1CC(N(C(=O)c2ccco2)c2ccccc2)c2ccccc2N1 (stereo not drawn)	inconclusive: 0.664% [signal inhibitor]	–
CCOc1ccccc1NC(=O)C1CCN(S(=O)(=O)c2ccc3c(c2)CCCN3C(C)=O)CC1	inconclusive: 1.31% [signal inhibitor]	–
CCS(=O)(=O)c1ncc(Cl)c(C(=O)Nc2ccccc2)n1	inconclusive: -0.487% [signal inhibitor]	–
CC(=O)c1ccc(NC(=O)c2ccc(-n3cnnc3)cc2)cc1	inactive: -1.64%	–
CCC(=O)N1c2ccccc2CC1C(=O)NCc1ccc(N(C)C)cc1 (stereo not drawn)	inactive: -0.585%	–

SMILES	IkBa stabilization activation	Potency
CCn1nc(-c2ccccc2)c(-c2ccccc2)c(C(=O)Nc2nc(C)c(C(C)=O)s2)c1=O	inconclusive: 4.22% [signal inhibitor]	–
Cc1ccc(NC(=O)CSc2nc(=O)n(Cc3ccco3)c3c2CCC3)cc1F	inconclusive: -1.52% [signal inhibitor]	–
CCn1c(=O)cc(SCC(=O)NCCCN2CCN(c3ccc(F)cc3)CC2)c2ccccc21	inconclusive: 4.71% [signal inhibitor]	–
O=C(Nc1sc2c(c1C(=O)Nc1cccc(Cl)c1)CCCC2)c1cccs1	–	inconclusive: 15.8 µM [signal inhibitor, partial curve]
O=C(CSc1ncn(-c2ccccc2)n1)Nc1nc2ccccc2s1	inconclusive: 1.38% [signal inhibitor]	–
Cc1ccc2c(c1)-c1onc(C(=O)N3CCN(c4cc(Cl)ccc4C)CC3)c1CO2	inconclusive: 4.76% [signal inhibitor]	–
O=C(Nc1cc(N2CCOCC2)ncn1)NC1(C(F)(F)F)Oc2ccc(Cl)cc2O1 (stereo not drawn)	inconclusive: 7.28% [signal inhibitor]	–
O=C(Nc1ccc(Cl)cn1)c1cc2ccccc2o1	–	inconclusive: 15.8 µM [signal inhibitor, partial curve]
CCN(Cc1ccccc1)C(=O)c1cc2c(=O)[nH]c3ccc(C)cc3c2s1	inconclusive: 1.58% [signal inhibitor]	–
Cc1cccc(Cn2c(COc3ccc(Cl)cc3)nc3ccccc32)c1	inconclusive: 17.5% [signal inhibitor]	–
Cc1ccc(CCNC(=O)c2cc3n(n2)CCCN(Cc2ccc(C)cc2)C3=O)cc1	inactive: 0.635%	–
CCC(=O)Nc1nn(C)c2nc3c(C)cccc3cc12	inactive: -2.23%	–
Cn1c(SCc2nc3ccccc3s2)nnc1-c1ccc2c(c1)OCO2	inconclusive: 10.4% [signal inhibitor]	–
CCOc1ccc(S(=O)(=O)N(CC(=O)NCCSc2ccc(C)cc2)c2ccccc2)cc1	inconclusive: 2.25% [signal inhibitor]	–
Cc1ccc(NC(=O)N2CCN(c3ccc(Cl)c(Cl)c3)CC2)cc1	inconclusive: -1.93% [signal inhibitor]	–
Cc1cc2n(n1)CCC(=O)N2Cc1ccc(C(=O)Nc2ccc(F)cc2F)cc1	inactive: 4.68%	–
CCOC(=O)c1ccc(NC(=O)CC2Nc3ccccc3NC2=O)cc1 (stereo not drawn)	–	inconclusive: 15.8 µM [signal inhibitor]
O=C(Nc1cc(-c2nc3cc(Cl)ccc3o2)ccc1Cl)c1cc([N+](=O)[O-])ccc1N1CCOCC1	inconclusive: 10.8% [signal inhibitor]	–
CCN(C(=O)CSc1nc2nc(C)cc(C)n2n1)c1cccc(C)c1	inactive: -0.74%	–
Cn1c(=O)oc2cc(S(=O)(=O)N3CCN(c4cccc(Cl)c4)CC3)ccc21	–	inconclusive: 7.94 µM [signal inhibitor, partial curve]
Cc1ccc(-c2nnc(Nc3ccc(F)cc3)c3ccccc23)cc1S(=O)(=O)N1CCN(C)CC1	inconclusive: 14.1% [signal inhibitor]	–
CCOc1cccc2c1Oc1nc(-c3ccccc3)nc(SCC(=O)Nc3ccc(F)cc3)c1C2	inconclusive: 2.5% [signal inhibitor]	–
